The text below walks through data of the antibiotic and cytotoxicity screens of Wong et al. (2023).

Some of the results follow.

This assay has as its system HepG2. Description: cytotoxicity call (relative viability < 0.9). The note with it: 10 µM.
As to `C[C@@H]1CCCCO[C@H](CN(C)C(=O)Nc2ccc3c(c2)OCO3)[C@@H](C)CN([C@@H](C)CO)C(=O)c2cc(NC(=O)CCC(F)(F)F)ccc2O1`, the cytotoxicity call was “inactive”.

For `C[C@H](CO)N1C[C@H](C)[C@@H](CN(C)Cc2ccc(Oc3ccccc3)cc2)Oc2ccc(NC(=O)Cc3cn(C)c4ccccc34)cc2C1=O`, the cytotoxicity call was “active”.

Regarding `O=C(N[C@@H]1CC[C@@H](CC(=O)N2CCOCC2)O[C@@H]1CO)c1ccccn1`, the cytotoxicity call was “inactive”.

As for `COc1ccc(S(=O)(=O)N(C)C[C@@H]2OCCCC[C@@H](C)Oc3ccc(NC(=O)C4CCCCC4)cc3C(=O)N([C@@H](C)CO)C[C@@H]2C)cc1`, the cytotoxicity call is “inactive”.

For the molecule `CC(=O)OC1CC2CC(OC(C)=O)C3(C)C(CCC4(C)C(c5ccoc5)OC(OC(C)=O)C5OC543)C2(C)C(OC(C)=O)C1` (centres undefined), the cytotoxicity call is “inactive”.

In the case of `COc1ccc(C#Cc2ccc3c(c2)[C@]2(C(=O)N3)[C@H](C(=O)Nc3nc4ccccc4s3)[C@H]3C(=O)O[C@H](c4ccccc4)[C@H](c4ccccc4)N3[C@@H]2c2ccccc2OCCO)cc1`, the cytotoxicity call was “inactive”.

As for `C[C@H](CO)N1C[C@H](C)[C@H](CN(C)Cc2ccc(C(=O)Nc3ccccc3N)cc2)Oc2c(NC(=O)Nc3ccc(C(F)(F)F)cc3)cccc2C1=O`, the cytotoxicity call is “inactive”.

As for `C[C@H]1CN([C@@H](C)CO)C(=O)c2cc(NC(=O)Cn3cnnn3)ccc2O[C@@H]1CN(C)C(=O)Nc1ccc2c(c1)OCO2`, the cytotoxicity call is “inactive”.

Consider `C[C@@H]1CN([C@H](C)CO)C(=O)Cc2cc(NS(C)(=O)=O)ccc2O[C@@H]1CN(C)S(=O)(=O)c1cccs1`, for which the cytotoxicity call was “inactive”.

With `Cc1ccc(S(=O)(=O)Nc2ccc3c(c2)C(=O)N([C@H](C)CO)C[C@H](C)[C@H](CN(C)C(=O)Nc2cccc4ccccc24)O3)cc1`, the cytotoxicity call was “inactive”.

Regarding `Cc1ccc(S(=O)(=O)N(C)C[C@@H]2Oc3cc(C#Cc4ccccc4)ccc3S(=O)(=O)N([C@@H](C)CO)C[C@H]2C)cc1`, the cytotoxicity call was “inactive”.

For `C=CC[C@H](CC(=O)N(CCO)Cc1ccccc1)C(=O)N[C@@H](COC(=O)[C@@H](CC=C)Cc1ccc(F)cc1)Cc1c[nH]c2ccccc12`, the cytotoxicity call was “active”.

Take `O=C1OCC=C[C@H]2O[C@@]34C=CCN(Cn5nnc6ccccc65)C(=O)[C@H]3N(CCO)C(=O)[C@@H]4[C@@H]12`: the cytotoxicity call is “inactive”.

`CNC[C@H](O)c1ccc(O)c(O)c1`: the cytotoxicity call is “inactive”.

Take `CN(C)C(=O)N1CC2(CCN(S(=O)(=O)N(C)C)CC2)[C@]2(CCN(C)C2=O)C1`: the cytotoxicity call was “inactive”.

Regarding `C[C@@H]1CN([C@H](C)CO)C(=O)c2cccc(NC(=O)Nc3cccc4ccccc34)c2O[C@H]1CN(C)S(=O)(=O)c1ccc(Cl)cc1`, the cytotoxicity call was “inactive”.

`COCC(=O)N(C)C[C@@H]1Oc2cc(C#C[C@H](C)O)ccc2S(=O)(=O)N([C@@H](C)CO)C[C@H]1C`: the cytotoxicity call is “inactive”.

With `C[C@H]1CCCCO[C@H](CN(C)S(=O)(=O)c2ccc(Cl)cc2)[C@@H](C)CN([C@@H](C)CO)C(=O)c2cc(NS(=O)(=O)c3ccc(Cl)cc3)ccc2O1`, the cytotoxicity call is “inactive”.

As to `CC1=C(C(=O)O)N2C(=O)[C@@H](NC(=O)[C@H](N)C3=CCC=CC3)[C@H]2SC1`, the cytotoxicity call is “inactive”.

On to `C[C@@H]1CN([C@H](C)CO)S(=O)(=O)c2ccc(-c3ccncc3)cc2O[C@@H]1CN(C)S(=O)(=O)c1ccccc1F`, for which the cytotoxicity call is “inactive”.

`Cc1ccc(S(=O)(=O)N(C)C[C@@H]2OCCCC[C@H](C)Oc3ccc(NC(=O)Nc4cccc5ccccc45)cc3C(=O)N([C@H](C)CO)C[C@H]2C)cc1`: the cytotoxicity call is “inactive”.

Take `O=C1OC(CN2CCOCC2)CN1N=Cc1ccc([N+](=O)[O-])o1` (centres undefined): the cytotoxicity call was “active”.

For the molecule `O=C(CN1CCOCC1)NCC[C@H]1CC[C@@H](NC(=O)c2ccc3c(c2)OCO3)[C@H](CO)O1`, the cytotoxicity call is “inactive”.

For the molecule `C[C@@H]1CN([C@@H](C)CO)C(=O)c2cc(NC(=O)Nc3ccccc3)ccc2O[C@@H]1CN(C)Cc1ccc(C(F)(F)F)cc1`, the cytotoxicity call is “active”.

Consider `O=C(CNC(=O)c1ccc(Cl)cc1)NO`, for which the cytotoxicity call was “inactive”.

For the molecule `CO[C@@H](C(=O)N(C)C[C@@H]1OCc2ccccc2-c2c(n(C)c3ccccc23)C(=O)N([C@H](C)CO)C[C@H]1C)c1ccccc1`, the cytotoxicity call was “inactive”.

For `COc1ccc(CCNC(=O)[C@@]2(Sc3ccc(C)cc3)CC(=O)N(C(C)C)[C@@H]2c2ccc(CO)cc2)cc1`, the cytotoxicity call was “inactive”.

`CO[C@@H]1CN(C)C(=O)c2cc(NS(C)(=O)=O)ccc2OC[C@H](C)N(C(=O)C2CCCCC2)C[C@@H]1C`: the cytotoxicity call was “active”.

With `C[C@H](CO)N1C[C@H](C)[C@H](CN(C)Cc2ccccc2)Oc2c(NC(=O)c3ccc(-c4nccs4)cc3)cccc2C1=O`, the cytotoxicity call was “inactive”.

In the case of `COc1ccc(CN(C)C[C@@H]2OCCCC[C@@H](C)Oc3ccc(NC(=O)c4ccncc4)cc3C(=O)N([C@@H](C)CO)C[C@@H]2C)cc1`, the cytotoxicity call is “inactive”.

`NC1CCN(C(=O)c2cc3ccccc3[nH]2)CC1`: the cytotoxicity call was “inactive”.

For `COCC(=O)Nc1ccc2c(c1)OC[C@@H](C)N(Cc1ccccc1F)C[C@@H](C)[C@@H](OC)CN(C)C2=O`, the cytotoxicity call was “inactive”.

On to `CN(C)CCCNC(=O)C[C@@H]1C=C[C@H](NC(=O)Cc2cccnc2)[C@H](CO)O1`, for which the cytotoxicity call was “inactive”.

With `O=C(O)C(O)C(O)C(=O)O.OCc1cccnc1` (centres undefined), the cytotoxicity call is “inactive”.

Regarding `Cc1ccc(S(=O)(=O)Nc2ccc3c(c2)CC(=O)N([C@H](C)CO)C[C@H](C)[C@H](CN(C)Cc2ccc(C(F)(F)F)cc2)O3)cc1`, the cytotoxicity call is “active”.

As to `COc1ccc(S(=O)(=O)N(C)C[C@@H]2Oc3ccc(NC(=O)CCC(F)(F)F)cc3CC(=O)N([C@H](C)CO)C[C@@H]2C)cc1`, the cytotoxicity call is “inactive”.

Take `O=C(C[C@@H]1C=C[C@H](NC(=O)c2cnccn2)[C@H](CO)O1)NCc1ccccc1F`: the cytotoxicity call was “inactive”.

As to `CS(=O)(=O)N1CCN(c2ccccc2)CC1`, the cytotoxicity call was “inactive”.

For `COCC#Cc1ccc2c(c1)O[C@H](CN(C)S(=O)(=O)c1ccc(C)cc1)[C@@H](C)CN([C@H](C)CO)S2(=O)=O`, the cytotoxicity call was “inactive”.
